Measured values published in PubChem BioAssay AID504333 (National Center for Advancing Translational Sciences (NCATS), 2011).
Values joined by “and” are separate entries in the source; they are usually repeats but may differ in a detail not shown here. Equal entries are not always repeated. The campaign covered roughly 360,000 compounds. About 16,000 (4.4%) were called active. This list was built around the results that the source calls inconclusive (neither active nor inactive); the mix of calls is not that of the screen. Calls come from the whole dose curve; as a rule, active = well fitted inhibition curve with a large enough effect; inconclusive = small, poorly fitted or top-dose-only effect; inactive = no such curve, though single readings can be large or run the other way. Potencies of inconclusive entries are doubtful fits and often do not repeat.
% is set by controls: 0 for no effect and ±100 for the full control effect; potency is the fitted concentration of half-maximal effect; tags give direction and shape of the fitted curve.
Note: nearly all actives have a fitted effect of over 60% in size.

Each compound was assayed against Bromodomain adjacent to zinc finger domain protein 2B (Homo sapiens) (UniProt Q9UIF8) (assay: qHTS Assay for Inhibitors of BAZ2B). Settings: AlphaScreen BAZ2B-H3K14Ac peptide displacement; activity change, negative = inhibition: at 114 µM (top of the series).
Sequence of UniProt Q9UIF8 (Q9UIF8 whole entry, looked up, the tested form may be a part): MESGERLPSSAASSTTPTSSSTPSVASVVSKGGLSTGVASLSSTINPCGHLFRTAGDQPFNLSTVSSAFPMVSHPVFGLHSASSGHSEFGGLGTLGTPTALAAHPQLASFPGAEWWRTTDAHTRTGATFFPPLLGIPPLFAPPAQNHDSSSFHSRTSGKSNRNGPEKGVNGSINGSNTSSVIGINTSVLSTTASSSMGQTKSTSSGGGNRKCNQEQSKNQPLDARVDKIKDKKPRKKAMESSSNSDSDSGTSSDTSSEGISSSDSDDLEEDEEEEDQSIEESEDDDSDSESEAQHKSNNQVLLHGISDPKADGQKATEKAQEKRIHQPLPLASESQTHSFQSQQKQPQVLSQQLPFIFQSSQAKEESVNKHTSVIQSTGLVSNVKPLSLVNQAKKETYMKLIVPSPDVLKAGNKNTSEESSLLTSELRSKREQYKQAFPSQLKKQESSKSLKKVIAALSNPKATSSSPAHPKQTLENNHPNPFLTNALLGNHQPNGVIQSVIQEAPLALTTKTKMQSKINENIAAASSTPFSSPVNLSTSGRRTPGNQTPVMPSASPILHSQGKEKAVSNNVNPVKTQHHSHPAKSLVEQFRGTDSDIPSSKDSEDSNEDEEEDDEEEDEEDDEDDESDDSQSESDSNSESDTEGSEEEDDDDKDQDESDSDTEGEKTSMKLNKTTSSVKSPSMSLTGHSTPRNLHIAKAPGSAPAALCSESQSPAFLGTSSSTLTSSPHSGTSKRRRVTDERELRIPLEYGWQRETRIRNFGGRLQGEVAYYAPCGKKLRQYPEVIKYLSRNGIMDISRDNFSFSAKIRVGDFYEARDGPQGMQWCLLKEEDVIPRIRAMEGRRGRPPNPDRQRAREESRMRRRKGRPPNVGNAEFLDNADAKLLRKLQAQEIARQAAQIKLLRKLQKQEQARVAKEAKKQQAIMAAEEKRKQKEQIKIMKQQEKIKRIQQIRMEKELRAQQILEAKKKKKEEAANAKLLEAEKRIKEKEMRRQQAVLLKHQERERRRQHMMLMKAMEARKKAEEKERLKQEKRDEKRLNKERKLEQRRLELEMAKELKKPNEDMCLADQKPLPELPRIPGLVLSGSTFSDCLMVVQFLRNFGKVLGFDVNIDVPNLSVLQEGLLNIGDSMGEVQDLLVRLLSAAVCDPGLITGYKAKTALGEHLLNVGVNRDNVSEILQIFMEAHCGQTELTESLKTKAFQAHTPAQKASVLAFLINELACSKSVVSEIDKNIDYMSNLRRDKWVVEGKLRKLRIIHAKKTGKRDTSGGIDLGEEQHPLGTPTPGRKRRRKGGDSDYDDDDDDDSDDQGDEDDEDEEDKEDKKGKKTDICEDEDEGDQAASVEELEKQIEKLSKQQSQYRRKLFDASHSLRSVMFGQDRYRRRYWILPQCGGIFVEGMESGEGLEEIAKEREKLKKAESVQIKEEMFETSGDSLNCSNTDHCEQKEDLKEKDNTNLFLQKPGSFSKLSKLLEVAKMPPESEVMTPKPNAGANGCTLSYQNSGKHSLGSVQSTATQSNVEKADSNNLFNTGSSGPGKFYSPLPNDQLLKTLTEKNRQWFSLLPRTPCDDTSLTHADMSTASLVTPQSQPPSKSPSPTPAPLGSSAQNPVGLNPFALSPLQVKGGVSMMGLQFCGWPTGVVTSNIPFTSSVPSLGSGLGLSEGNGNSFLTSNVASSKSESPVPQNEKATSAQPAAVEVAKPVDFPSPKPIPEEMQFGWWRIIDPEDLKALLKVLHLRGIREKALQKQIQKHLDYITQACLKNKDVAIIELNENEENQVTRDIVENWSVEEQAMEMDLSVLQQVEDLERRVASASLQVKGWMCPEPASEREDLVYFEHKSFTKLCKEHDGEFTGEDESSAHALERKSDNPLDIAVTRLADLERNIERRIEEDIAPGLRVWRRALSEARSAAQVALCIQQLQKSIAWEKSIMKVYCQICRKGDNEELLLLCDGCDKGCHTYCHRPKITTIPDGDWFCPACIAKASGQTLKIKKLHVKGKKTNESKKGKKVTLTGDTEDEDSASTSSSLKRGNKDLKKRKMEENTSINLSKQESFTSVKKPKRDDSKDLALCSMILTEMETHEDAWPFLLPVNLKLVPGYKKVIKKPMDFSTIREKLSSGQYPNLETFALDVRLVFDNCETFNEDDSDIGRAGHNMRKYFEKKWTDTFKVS
How it was run: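 BAZ2B 50 nM plus b-H3(5-23)K14Ac 50 nM, PBS pH 7.4/0.01% Tween-20, 30 min RT; compound added (max 110 uM), 30 min RT; streptavidin donor/Ni-chelate acceptor beads 10 ug/mL final, 20 min dark; AlphaScreen read.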
With `Cc1cc(=O)[nH]c(N2CCCC2)n1` the “activity change, negative = inhibition” value was inactive: -33.4%.
With `CC(C)COc1ccc(C(=O)NC(Cc2c[nH]c3ccccc23)C(=O)NN)cc1` (configuration not stated) the Potency was inconclusive: 79.4 µM [inhibitor, single point].
For `CCN(CC)CCNC(C(=O)Nc1cc(C(F)(F)F)ccc1Cl)c1ccccc1` (configuration not stated), the Potency was inconclusive: 70.8 µM [inhibitor, single point].
In the case of `Cc1cc2c(cc1C)CSC(c1c(O)ccc3ccccc13)SC2`, the Potency was inconclusive: 89.1 µM [inhibitor, single point].
With `COc1cc(OC)cc(C(=O)NCC2CCCN(Cc3cccc(C(C)=O)c3)C2)c1` (configuration not stated) the Potency was inconclusive: 89.1 µM [inhibitor, single point].
With `c1ccc(CN=C2NN=C(c3ccccc3)CS2)cc1` the Potency was inconclusive: 31.6 µM [inhibitor, full curve].
In the case of `O=C(Nc1ncccc1O)c1cccc(S(=O)(=O)NCc2ccccc2)c1`, the Potency was inconclusive: 89.1 µM [inhibitor, single point].
`COc1ccc(/C=C2\C(=N)N3N=C(CC(=O)N4CCOCC4)SC3=NC2=O)cc1` was tested, and the Potency was inconclusive: 1.58 µM [inhibitor, full curve, poor fit].
With `CCOC(=O)c1c(C)[nH]c(C)c1C(=O)COC(=O)c1cccc(S(=O)(=O)NC)c1` the Potency was inconclusive: 50.1 µM [inhibitor, partial curve].
`COc1cccc(NC(=O)[C@H](NC(=O)[C@@H]2Cc3ccccc3CN2)c2ccccc2)c1` was tested, and the Potency was inconclusive: 89.1 µM [inhibitor, single point].
In the case of `Cn1c(=Nc2ccc(N3CCOCC3)cc2)ccc2ccccc21`, the Potency was inconclusive: 100 µM [inhibitor, single point].
For `Oc1c(C(Nc2cccc(C(F)(F)F)c2)c2cccnc2)ccc2cccnc12` (configuration not stated), the Potency was active: 20 µM.
`COc1cccc(N2CCN(CC(=O)C34CC5CC(CC(C5)C3)C4)CC2)c1` was tested, and the Potency was inconclusive: 89.1 µM [inhibitor, single point].
In the case of `CCC1CN(C(=O)NCc2cccc(OC)c2)c2ccccc2O1` (configuration not stated), the Potency was “inactive”.
With `N#Cc1nc(Cc2cccc3ccccc23)oc1NCC1CCCO1` (configuration not stated) the Potency was inconclusive: 50.1 µM [inhibitor, partial curve].
In the case of `COc1ccc(-c2[nH]c(-c3ccccc3)nc2SCC(=O)NC2CCCC2)cc1`, the Potency was inconclusive: 44.7 µM [inhibitor, partial curve] and inconclusive: 50.1 µM [inhibitor, partial curve].
In the case of `CC(=O)N1N=C(c2ccccc2O)OC1(C)CC(=O)Nc1ccccc1` (configuration not stated), the Potency was inconclusive: 79.4 µM [inhibitor, single point].
With `CCCCN1C(=O)/C(=C/C=C2\Oc3ccccc3N2CC)SC1=S` the Potency was inconclusive: 39.8 µM [inhibitor, full curve].
`Cc1ccc2scc(N3CCN(c4ccccc4)CC3)c(=O)c2c1` was tested, and the Potency was inconclusive: 50.1 µM [inhibitor, partial curve].
In the case of `CCOc1ccc(CCNC(=O)c2ccc3[nH]c(C)c(C)c3c2)cc1`, the Potency was inconclusive: 39.8 µM [inhibitor, partial curve].
In the case of `O=C(NC1CCCC1)C(c1ccncc1)N(Cc1cccs1)C(=O)c1csnn1` (configuration not stated), the “activity change, negative = inhibition” value was inactive: -7.12%.
For `NC(=O)c1sc2nc(N3CCOCC3)c3c(c2c1N)CCCC3`, the Potency was inconclusive: 11.2 µM [inhibitor, single point].
`CCc1nc(-c2ccc(C)nc2OC)no1` was tested, and the “activity change, negative = inhibition” value was inactive: -6.75%.
With `O=C(CN1C(=O)/C(=C/c2ccco2)SC1=S)NC1CCS(=O)(=O)C1` (configuration not stated) the Potency was inconclusive: 25.1 µM [inhibitor, single point].
`O=C(C1COc2ccccc2O1)N(Cc1cccnc1)c1nc2ccc(F)cc2s1` (configuration not stated) was tested, and the “activity change, negative = inhibition” value was inactive: -2.97%.
`C/C(CC(=O)Nc1cccc(C(F)(F)F)c1)=N\NC(=O)C1CCCCC1` was tested, and the Potency was inconclusive: 63.1 µM [inhibitor, partial curve].
`O=C(/C=C/c1ccccc1)NC(=S)Nc1ccc(CN2CCOCC2)cc1` was tested, and the Potency was inconclusive: 56.2 µM [inhibitor, single point].
For `CCCCC(=O)Nc1cc(Cl)ccc1C(=O)O`, the Potency was inconclusive: 79.4 µM [inhibitor, partial curve].
With `Cc1ccc(C(=O)NC(=S)Nc2ccc(N3CCN(C(=O)c4ccco4)CC3)cc2)cc1` the Potency was inconclusive: 8.91 µM [inhibitor, full curve].
For `CCOc1ccc(CCNC(=O)c2ccc(Cn3c(=O)c4cccn4c4cccnc43)cc2)cc1`, the Potency was inconclusive: 89.1 µM [inhibitor, single point].
For `COc1ccc(S(=O)(=O)Nc2cc(C(=O)NC3CCCCCC3)ccc2N2CCOCC2)cc1`, the Potency was inconclusive: 79.4 µM [inhibitor, single point].
`CCOC(=O)Cc1cc(=O)[nH]c(/N=C(\N)Nc2ccc(C)cc2C)n1` was tested, and the Potency was inconclusive: 89.1 µM [inhibitor, single point].
With `O=C(c1ccc2c(c1)N(Cc1ccccc1F)C(=O)c1ccccc1S2(=O)=O)N1CCCCCC1` the Potency was inconclusive: 79.4 µM [inhibitor, single point].
With `CCCNC(=O)c1cc2n(n1)CCCN(Cc1ccc(F)cc1)C2=O` the “activity change, negative = inhibition” value was inactive: -1.97%.
With `Cc1cccc(NC(=O)c2cc(=O)n(Cc3ccccc3)c(=O)[nH]2)c1` the Potency was inconclusive: 79.4 µM [inhibitor, single point].
In the case of `CCCCc1c(O)nc(SC2CC(=O)N(c3ccc(C(=O)OCC)cc3)C2=O)[nH]c1=O` (configuration not stated), the Potency was inconclusive: 89.1 µM [inhibitor, single point].
In the case of `O=C(NCCCn1ccnc1)C(Cc1ccccc1)N1C(=O)c2ccccc2C1=O` (configuration not stated), the Potency was inconclusive: 100 µM [inhibitor, single point].
`CCOC(=O)c1c(C)[nH]c(C)c1S(=O)(=O)NCCN1CCN(c2cc(Cl)ccc2C)CC1` was tested, and the Potency was inconclusive: 12.6 µM [inhibitor, full curve].
With `Cn1cccc1Cc1nnc(SCC(=O)N2CCCC2)n1CCc1ccccc1` the Potency was inconclusive: 89.1 µM [inhibitor, single point].
With `CN(C)S(=O)(=O)c1ccc(Cl)c(C(=O)NC2CCCCCCC2)c1` the “activity change, negative = inhibition” value was inactive: -24.3%.
In the case of `Cc1ccc(NC(=O)Cn2c(=O)n(Cc3nc(-c4ccccc4)no3)c(=O)c3cc4c(cc32)OCO4)cc1C`, the “activity change, negative = inhibition” value was inactive: -16.2%.
For `CC(=O)NC(c1ccccc1)c1c(O)ccc2ccccc12` (configuration not stated), the Potency was active: 31.6 µM.
In the case of `Cc1cccc(N=Nc2c(C)c(C#N)c(O)[nH]c2=O)c1`, the “activity change, negative = inhibition” value was inactive: -33.3%.
`COc1ccc(/C=N\NC(=O)C2=NNC(=O)C2C)cc1` (configuration not stated) was tested, and the Potency was inconclusive: 100 µM [inhibitor, single point].
With `Cc1cccc(NC(=S)NNC(=S)NCc2ccccc2)c1` the “activity change, negative = inhibition” value was inactive: -2.37%.
With `Cc1cccc(-n2ccc(=O)c(C(=O)Nc3ccc(S(=O)(=O)Nc4onc(C)c4C)cc3)n2)c1` the Potency was inconclusive: 100 µM [inhibitor, partial curve, poor fit].
`Cc1cc2c(c(=O)n1Cc1ccccc1)C1O[C@](c3ccsc3)(Cc3cc(C#N)ccc31)O2` was tested, and the activity change, negative = inhibition was inactive: -37.4% [at 22.9 µM].
For `C=CCNc1nc(N2CCOCC2)c(C#N)c2c1CN(C)CC2`, the “activity change, negative = inhibition” value was inactive: 2.48%.
With `COc1cc(C2C(C(=O)c3cccs3)=C(O)C(=O)N2c2cc(C)on2)ccc1O` (configuration not stated) the Potency was inconclusive: 89.1 µM [inhibitor, single point].
In the case of `CCC1CCCCN1C(=O)Cn1c(=O)n(-c2ccccc2C(F)(F)F)c(=O)c2c(C)c(C(=O)N(C)C)sc21` (configuration not stated), the “activity change, negative = inhibition” value was inactive: 5.22%.
For `CC(C)CNC(=S)N(CCO)Cc1cc2cc3c(cc2[nH]c1=O)OCO3`, the Potency was inconclusive: 89.1 µM [inhibitor, single point].
In the case of `CCc1ccc(OCC(=O)NNC(=O)Cc2cccs2)cc1`, the Potency was inconclusive: 50.1 µM [inhibitor, partial curve].
With `Cc1cccc(NC(=O)C2CC(=O)n3cnnc3S2)c1` (configuration not stated) the Potency was inconclusive: 89.1 µM [inhibitor, single point].
`O=C(/C=C/c1ccco1)Nc1cc(Cl)ccc1C(=O)O` was tested, and the Potency was inconclusive: 89.1 µM [inhibitor, single point].
For `CN(C)c1ccc(CNc2nc(-c3ccco3)nn2S(=O)(=O)c2ccc(Cl)cc2)cc1`, the “activity change, negative = inhibition” value was inactive: 11.7%.
With `COc1ccccc1CNc1nc(-c2ccco2)nn1C(=O)c1ccccc1[N+](=O)[O-]` the Potency was inconclusive: 12.6 µM [inhibitor, full curve].
For `CC1(C)CC(=O)c2sc(NS(=O)(=O)c3ccc(F)cc3)nc2C1`, the “activity change, negative = inhibition” value was inactive: -24.9%.
For `CC(Oc1ccc(Br)cc1Br)C(=O)Nc1cccnc1Cl` (configuration not stated), the “activity change, negative = inhibition” value was inactive: 33.2%.
With `N/C(=N\OC(=O)CCC1CCCC1)c1cccc([N+](=O)[O-])c1` the “activity change, negative = inhibition” value was inactive: 7.34%.
`COc1cccc(-n2c(COc3ccc(C)cc3)nnc2SCC(N)=O)c1` was tested, and the Potency was inconclusive: 89.1 µM [inhibitor, single point].
With `COC(=O)c1ccccc1NC(=O)CSc1nc2sc3c(c2c(=O)[nH]1)CCCC3` the Potency was inconclusive: 79.4 µM [inhibitor, partial curve].
With `COCCCNC(=O)Cn1c(=O)n(-c2cccc(C)c2)c(=O)c2c3c(sc21)CN(C(C)=O)CC3` the “activity change, negative = inhibition” value was inactive: -0.955%.
For `COC(=O)c1cnc(Nc2cccc(C(F)(F)F)c2)c([N+](=O)[O-])c1`, the Potency was inconclusive: 7.08 µM [inhibitor, full curve].
For `CC/C(O)=C(/C#N)c1nnc2n1CCCCC2`, the Potency was active: 79.4 µM.
`COc1ccc(N2CCN(CC(=O)N3c4ccccc4CC3C)CC2)cc1` (configuration not stated) was tested, and the Potency was active: 35.5 µM.
In the case of `COCCCNC(=O)C1CCN(c2nnc(-n3cccc3CNc3ccc(C)cc3)s2)CC1`, the Potency was inconclusive: 56.2 µM [inhibitor, partial curve].
`CCc1ccc[n+](-c2[nH]c(=O)sc2/C=N/NC([S-])=Nc2ccccc2)c1` was tested, and the Potency was inconclusive: 50.1 µM [inhibitor, partial curve].
